# Experimental data published in publication PMC7819943, “Rice protein-binding microarrays: a tool to detect cis-acting elements near promoter regions in rice”.
# Some of the results follow.
# Target: T1, OsWOX13 (Oryza sativa, UniProt Q5QMM3 1-267)
# T1 sequence: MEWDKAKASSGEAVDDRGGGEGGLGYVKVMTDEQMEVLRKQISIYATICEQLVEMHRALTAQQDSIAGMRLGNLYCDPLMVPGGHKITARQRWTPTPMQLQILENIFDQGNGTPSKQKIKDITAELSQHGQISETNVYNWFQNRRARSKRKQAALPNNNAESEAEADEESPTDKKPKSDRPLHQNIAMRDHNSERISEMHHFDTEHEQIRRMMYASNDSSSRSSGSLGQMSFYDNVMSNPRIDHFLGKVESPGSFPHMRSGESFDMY
# Test: protein-binding microarray (RPBM); PBS, 2% BSA, 51.3 ng/ul salmon testes DNA, 50 uM zinc acetate, 200 nM TF, 25 C, 1 h; high values mean tight binding
# Conditions: protein: recombinant; tags: N-terminal polyhistidine and DsRed monomer fusion (pET32a); label: CyDye5-dUTP incorporated in the synthesized complementary strand; 3' TTTTT single-stranded linker to array surface; dsDNA, one strand shown
# Outline: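 Binding signal is reported as fluorescence intensity per feature (arbitrary units) from an Axon 4000B scanner. Incubation used 200 nM of each Ni–NTA-purified, N-terminally polyhistidine- and DsRed-fused transcription factor from E. coli BL21-CodonPlus on a double-stranded custom Agilent array for 1 h at 25 °C, with 50 µM zinc acetate in the buffer, followed by washing.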
row,Sequence,binding signal
1,AAACAAACATAATTTATCTTATTAGAAAGTAATTTTCTACCGGAGTCACCTAGTGCAG,6280 fluorescence intensity (a.u.)
2,AGTTTGATAGGCTGCGCTGTTACAGTGTCACTACAGTGTTCGGAGTCACCTAGTGCAG,15900 fluorescence intensity (a.u.)
3,CCAGATTACCGATTCAACAGCATAAATAAAGTACTCCGGGCGGAGTCACCTAGTGCAG,6730 fluorescence intensity (a.u.)
4,GTACTAATCACACCGAATTAGCAGCCCCTCCCTAAGCCATCGGAGTCACCTAGTGCAG,14500 fluorescence intensity (a.u.)
5,AAGATTAGAGTAACTTTCCTATTATGTATTGGATAGACTTCGGAGTCACCTAGTGCAG,4080 fluorescence intensity (a.u.)
6,AAAACTATAATTGAAAAGATCAAAATCAACTCTAAGATTTCGGAGTCACCTAGTGCAG,20800 fluorescence intensity (a.u.)
7,CTGATTGTAGCAGCGATGCTAACTACAAGTGTGCCACAGTCGGAGTCACCTAGTGCAG,4730 fluorescence intensity (a.u.)
8,TCCTAAAATGCCAATGATTCCATTTCCAAAACCATCCAAACGGAGTCACCTAGTGCAG,3600 fluorescence intensity (a.u.)
9,TGACTTATGATTTATTTTATGACATAGTGAGTATATGCCTCGGAGTCACCTAGTGCAG,13400 fluorescence intensity (a.u.)
10,GGCTGATTGGGCAGATTCTTTTATTGTTTCTATTTATAAACGGAGTCACCTAGTGCAG,26500 fluorescence intensity (a.u.)
11,TTGTAATAATTGATTTGGCGTGGAGATAAATTTTAGATACCGGAGTCACCTAGTGCAG,37300 fluorescence intensity (a.u.)
12,GAAATTGGTACAATGTGACTGAAAAGTTATGTGTATATGACGGAGTCACCTAGTGCAG,4280 fluorescence intensity (a.u.)
13,GAATAATTTATGATTATTGTTAACAGTTATAAATGAATGACGGAGTCACCTAGTGCAG,45100 fluorescence intensity (a.u.)
14,TCCCATGTTATGTAATCACCAATCAGACCCACAAAAGATTCGGAGTCACCTAGTGCAG,6320 fluorescence intensity (a.u.)
15,TTTGAAAATTAATTGAGCGCATGCCGGTGCCAAATAATATCGGAGTCACCTAGTGCAG,14200 fluorescence intensity (a.u.)
16,ATAACTGCAAAATCACTGTTCCACACGGTAGCACAGGATACGGAGTCACCTAGTGCAG,3800 fluorescence intensity (a.u.)
17,AATTGGAAGTTTGATTGAAATTGGAATGATATGACGGAAACGGAGTCACCTAGTGCAG,25900 fluorescence intensity (a.u.)
18,GGCCAATCAGATTACGATGCTAACTACGGAAATGAATTGCCGGAGTCACCTAGTGCAG,21500 fluorescence intensity (a.u.)
19,ACTGACATGGTAATTAACTAACTCTCTGTGAAAATTAATGCGGAGTCACCTAGTGCAG,23700 fluorescence intensity (a.u.)
20,GTTAGATTGACTATAGATAAATTAGAAGCTAGTAGCGAGCCGGAGTCACCTAGTGCAG,41600 fluorescence intensity (a.u.)
21,AATTAATTACTAATAATGACTTAATATTCCATCATCTCCCCGGAGTCACCTAGTGCAG,27500 fluorescence intensity (a.u.)
22,ACGTAATGATTAATAATCTACGTCTCTCTATTCCGTATTTCGGAGTCACCTAGTGCAG,33500 fluorescence intensity (a.u.)
23,ATAATTAATACTTAACTAATTGCGAACTAATAGTTTACATCGGAGTCACCTAGTGCAG,35900 fluorescence intensity (a.u.)
24,GTCCGCTACTAGATGAAATCAATCAACACCGTCGGATCGACGGAGTCACCTAGTGCAG,3840 fluorescence intensity (a.u.)
25,TTTGATTTCACACATGATGTGCAAATTATCATGTGTTTTGCGGAGTCACCTAGTGCAG,26100 fluorescence intensity (a.u.)
26,TTCGTGCCTTTTGTTTGATAATTTCTTCATGCTATCTTTTCGGAGTCACCTAGTGCAG,3660 fluorescence intensity (a.u.)
27,CGCTAAAATTGAATTTAAAGAAATTGGAACGATGTAATGGCGGAGTCACCTAGTGCAG,24500 fluorescence intensity (a.u.)

row,Sequence,binding signal
1,GCCAGTTTGCTACAATTAATTGACCACATACAATTGGTGGCGGAGTCACCTAGTGCAG,25200 fluorescence intensity (a.u.)
2,ACAATCATCATTCATTCATGTTACCATGTCACCAGTCTCACGGAGTCACCTAGTGCAG,3230 fluorescence intensity (a.u.)
3,AAGAGACACCAATTAACCATGTATAATTCATTTAGTCTCACGGAGTCACCTAGTGCAG,5500 fluorescence intensity (a.u.)
4,ATGATTTGGATGTTTGAAACTTGAGAGTGGAATGCGACCCCGGAGTCACCTAGTGCAG,7270 fluorescence intensity (a.u.)
5,AACTGATGAGATGGAAGAGATGTGGGAGGATAAACTTGTACGGAGTCACCTAGTGCAG,3700 fluorescence intensity (a.u.)
6,AGTTTCAGGTAATTTTCTTTGGTGACTGCCGCATCTGTTACGGAGTCACCTAGTGCAG,4830 fluorescence intensity (a.u.)
7,ACAAATTTACTCAAAATAATGCGCAATAAAAGGATTATTTCGGAGTCACCTAGTGCAG,3980 fluorescence intensity (a.u.)
8,GTGATAATGTGATGAAAGCACTTATCATGACAAACTTGGCCGGAGTCACCTAGTGCAG,5950 fluorescence intensity (a.u.)
9,GCTGATTTTAACACATGCCTTAGCTGATTTAACAACCGCCCGGAGTCACCTAGTGCAG,21700 fluorescence intensity (a.u.)
10,CTATGATTAGCCATAAGTGCTACAGTAATCCACATGTGCTCGGAGTCACCTAGTGCAG,36200 fluorescence intensity (a.u.)
11,GTACTTTTCCATCACATCACTCTGTCATATACACAATTTTCGGAGTCACCTAGTGCAG,4740 fluorescence intensity (a.u.)
12,TTGATTGCCTCAGGTGGTCCGGACACCGTCTCAACATCCACGGAGTCACCTAGTGCAG,17700 fluorescence intensity (a.u.)
13,GATGCAAATTGCTTTAAATGGGCTCGGAAACACGATCTCGCGGAGTCACCTAGTGCAG,14600 fluorescence intensity (a.u.)
14,TCCTAGCTAGGCTGATTGATCCAAGCTAGCTTCGTCGTACCGGAGTCACCTAGTGCAG,11800 fluorescence intensity (a.u.)
15,TTTTGATAGCTAAAGGAGTCGATATACCCGGTTTTATAGTCGGAGTCACCTAGTGCAG,3500 fluorescence intensity (a.u.)
16,ATAAAATTAGTTATTTTATTTATATCCGGAAACTCTTTCGCGGAGTCACCTAGTGCAG,13200 fluorescence intensity (a.u.)
17,TATTGTCTAATTGGCATAGCTGCCAATCTGTTATTGCTCACGGAGTCACCTAGTGCAG,19400 fluorescence intensity (a.u.)
18,CCTACGCCTAATTGATCCTCCATTATCGTCGTCGTCGTCGCGGAGTCACCTAGTGCAG,35600 fluorescence intensity (a.u.)
19,ATCTACTATTACTAGCTGCTAATTAACAACGCACTAACTACGGAGTCACCTAGTGCAG,4070 fluorescence intensity (a.u.)
20,AAACCATTAGCGCATAATTTATTGAGTTTTAATTATTTCACGGAGTCACCTAGTGCAG,6070 fluorescence intensity (a.u.)
21,TAAATAGATTTGCTATGCTACTTGCTATAGAAAATCAGTCCGGAGTCACCTAGTGCAG,21000 fluorescence intensity (a.u.)
22,ACTTTGACTAAATTATCACATCATATTTAACAATAAATTTCGGAGTCACCTAGTGCAG,11000 fluorescence intensity (a.u.)
23,TCCGAAATTGTTGTAATCGATCTGGGTCAGCAGTTCTGCTCGGAGTCACCTAGTGCAG,5720 fluorescence intensity (a.u.)
24,AAAACTAATTATGCAATCCATCGGTAAACCGCAAGATGAACGGAGTCACCTAGTGCAG,13800 fluorescence intensity (a.u.)
25,GTAAAATTAGCAGTTAGAAATCCGGCTTACGTGTAGACTGCGGAGTCACCTAGTGCAG,14000 fluorescence intensity (a.u.)
26,CGTCAAATTCTAATTAATCGTCCGCATAACAACTAATCATCGGAGTCACCTAGTGCAG,9950 fluorescence intensity (a.u.)
27,ATAGTAATCAATGGGCATCTTAGTCATCATGCCATACCTACGGAGTCACCTAGTGCAG,3420 fluorescence intensity (a.u.)
